Values marked as one replicate rest on one cluster of the flow cell; about a third of the high ones do not repeat.
Test system: ATP
Experiment: switch fluorescence ratio, 500 uM ATP over buffer (Cy3 cluster intensity, sum of 5 cycles each) (fold (ratio)); higher = stronger signal-on switching upon ATP binding; sequences stand for … in TCGTCGGCAGCGTCAGATGTGTATAAGAGACAGTTTTTTTTTTTTTTTTTTTTTTTTT…TC
Conditions: aptamer strand: ATP DNA aptamer (quencher-CACCTGGGGGAGTATTGCGGAGGAAGG + anchor), 100 nM annealed; ATP concentration: 500 uM; one replicate
Procedure, shortened: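 Five buffer/ATP imaging cycles were run on Cy3-labelled switching-strand clusters on a modified Illumina MiSeq flow-cell, with NaOH stripping and re-annealing between cycles. In each cycle, clusters annealed to 100 nM quencher-labelled ATP aptamer were imaged in selection buffer, then after 15 min with 500 uM ATP at 22 °C. Per cluster, the fluorescence ratio is summed target-cycle over summed buffer-cycle Cy3 intensity, averaged per switch-domain sequence. Only clusters within 100-1000 RFU were kept.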
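Note: ATP exposure 15 min at 22 °C before imaging.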

Sequence	switch fluorescence ratio
ACAGACACCA	1.14
CATTTAAGTG	1.03
CATCACGTGG	0.97
ACGGATGAGA	1.05
CCGCCGTTAC	5.96
GTTCGTTTCA	0.967
CAGGTGATAA	1.12
ACTGTATCTT	1.12
CAAGTATTAA	1.21
ATCTGATTCC	1.32
CATTTCGGCC	1.01
ACATATGCTT	1
CAATAAACTA	1.07
CTGTACCGGT	1
GCAGAATGTT	0.999
AATAAAAAG	1.02
AACCAAACCG	1.16
AATTACCTTA	1.05
GTGGGAGCTT	0.973
AGGTTGGCAC	1.03
TCATTTTTGT	0.996
AACAGTTAGA	1.03
GATTTAAGCC	1.09
GCTTGCGGAG	1.06
CACCCCG	1.55

Sequence	switch fluorescence ratio
AAAAAGAGGT	0.964
ACGGGCACTG	1.11
GGATCTTTCG	0.992
CTGGTACTAG	0.99
GCATTGTCTG	0.984
CTAACTCCTT	1.02
CATGCAGGAC	2.29
TTCCACTCCG	1.24
CATGAGCCTA	0.866
CCTTTCGGCC	1.16
CTATGCAACG	1.01
GGGCAATGCA	1.12
GCCGTCCTGA	1
CACATGATCA	1.02
CCTGGAGTCG	0.974
GGAGAGATGT	0.973
TCTTCACGCT	0.992
AAAAGGGACA	1
AAGGGCCGGT	0.977
TTAGAGTTGG	1.01
TACACGACAT	1.23
GTTTCTTATG	0.904
TTCTGTACTG	1.01
ATAGTTTTGC	1.05
TATAAGTCAT	1

Sequence	switch fluorescence ratio
CCCAGTTATT	1.02
AAAGCACAGT	1.08
GAGCGTACAG	1.05
TATAAGACCG	1.05
ATTCAGTCCG	0.979
TCCGGGTTCA	0.981
ATACGTTAGG	1.06
ACGTAGAAAG	1.08
AGGGTGAACG	0.961
ACATTCCCCG	1.07
ACATTGGTT	0.985
GCGCCAATGT	1.19
AAGCGGCTGG	0.988
CGGCTAACAT	0.971
AGAGCTGGTA	1
TGAGTTTCGA	0.979
AATAAGCTGT	0.982
TTACTTAAGC	1.04
CCAATGCATT	1.22
GCATGATGA	0.985
GGGGAATCG	1.01
GCAGTGTTAC	1.27
TGCGAAAACG	1.01
TAAGTATAGC	0.956
CCGTCACGCG	1.31

Sequence	switch fluorescence ratio
GACGAGGAGT	0.99
TATGCGTTTC	1.02
ATAGATACGG	1.05
AGTCCGCCTC	2.79
CGTCTACTTG	1
TTGTGCGCAT	2.24
TGGCTTTAAG	0.939
CTGATGGAGA	1
TCATTACAGG	1.15
GGCTTAAAGC	0.996
AATTTGGGCC	0.975
CACTAAAGGA	0.999
GCGGCCAAAA	1.16
CGGGCGGCTG	0.998
CAGCAACGG	1.02
CCGTGGTATG	1.04
GTTGTCACGG	0.99
TTAGGCCCG	0.983
TTAAACCGAG	1.8
TGTAGAAGTG	1.12
CCAGTGGACA	0.996
ATTCAGACAG	0.995
TCTCTCTTCT	0.995
CAGCGGGAAA	1.06
AAATTATGAG	0.946

Sequence	switch fluorescence ratio
TAGTGTGATA	0.978
GAGAGAAGGT	1.02
ATAATAGTTA	1
CACGACAAAA	1.31
CGAATCGGGA	1.04
CGCGGGATTC	1.11
CTGTGACGTC	1.04
TGATGAGTTA	1.01
AGGGTTCTT	1.04
AGCTAACAG	1
GTGGGGCAGG	1.08
TCCTTGGTTT	0.984
GAGTTCAAGA	1.01
CGCCTTTCTC	1.68
CGGGAAACGT	1.07
GGGTCTGTC	1.32
AATATGGCTT	1.03
GTTATTTGA	0.998
CGAAGGCCAA	1.12
AGAATGTGGT	0.951
ACTGTTACGT	1.25
AGTTGCCAAA	0.984
GCGATGCAGT	1.14
GTTAAGCACC	1.23
GGTATTGCG	1.02

Sequence	switch fluorescence ratio
CCGGGGGTCT	0.999
TAGATAGCTG	0.924
TAGACCAATT	0.97
TGGTTTCTCC	1.23
TCTAGTAAAC	1.06
TTACTTCTT	1
GCGGGAATCG	1.02
CCATGTCAAT	1.28
CCAAGGTTCC	1.07
GCGTGTTGGG	1.05
GCCGTACTGC	1.05
TATTCTGGCC	1.03
AGTCGGTAAT	0.948
GGGCGCGCGT	0.961
AACGCGGCGA	1.04
GAAGTTAAGG	0.956
TAGTTGTACG	1.14
GGACGGGCAA	1.07
CGGAGAATTC	1.14
GTCGCTGGCA	1
CGATAGCGAT	1.59
ATCCGTCCGT	1.05
GCGGTTGATG	0.977
GGGTCGATAA	0.992
TACCGGCAGC	1.12

Sequence	switch fluorescence ratio
ACGATAGTCG	1.01
TGCATTCGCT	1.01
AGCATGGGTA	0.947
GGATGCGAGG	1.03
TTAGTGAGCT	1.02
ATAGCGTTAT	0.972
GCAGGACAGG	0.97
TGTTGGCAAC	0.952
TAGTTGGCTG	1.07
GCTGCCAGGT	1.18
ACTCTATTGT	1.06
CACATGATCG	0.978
AACGATCAA	1
TGTATTTAGG	0.988
GGACACCGGA	1.03
CTGTTCATGT	0.994
CAAATTGCGA	0.988
GATGTCGCAA	2.74
CTAAATACTT	1.06
TTTGAGTACA	1.03
TACTCAGA	1.05
GGGCTTCAGT	0.974
AATGATTTTA	0.999
ACAGAAACCC	1.1
GGACTCGATG	0.98

Sequence	switch fluorescence ratio
ACAAGCGCGA	0.999
CTAAAGGGCT	0.968
ACTCATCTTT	1.03
TCACTAGGGA	1.02
AGGGCGCCGT	1.16
TGAGGAGCTT	0.965
GCGCTGATGT	1.01
GCAGTGAGTC	1.03
GATACCTGGA	1.06
GGGCCTGAAC	1.16
AGCCGCATGC	4.11
TCCCACCTCC	1.39
TAGGATCGAC	1.01
GACTTCCTGA	1.05
TCTATTATGG	0.947
AAGTGAGGGC	1.03
TCGTAAACAG	0.989
TGCGTGCGAA	1.01
GTCAGGGGAA	0.999
TAAATGTACG	1.02
ATGCGTTTC	1.07
ATTTCAATCC	0.884
GTGACTATTG	1.07
ATGAGATATT	0.975
AATATCCCGC	1.1
